# Some of the results follow.
# Columns and labels:
# Test in all cases: glycan array binding signal (z-score within array); higher = stronger binding
# Conditions in all cases: glycan notation: IUPAC condensed, linker removed
# [1] = biological target: Neu5Ac(a2-3)Gal(b1-4)GlcNAc(b1-6)GalNAc
# How it was run: (§1)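 Columns mapping to the same glycan were averaged after glycan names were converted to IUPAC-condensed notation. The data come from 3228 arrays in the Consortium for Functional Glycomics database, limited to those with an available protein sequence. Binding is reported as a within-array Z-score averaged across arrays of one protein sequence and across linkers.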
# [2] = biological target: Neu5Ac(a2-3)Gal(b1-4)GlcNAc(b1-6)[Gal(b1-3)]GalNAc
# How it was run: as §1
# [3] = biological target: Neu5Ac(a2-3)Gal(b1-4)GlcNAc(b1-6)[Neu5Ac(a2-3)Gal(b1-3)]GalNAc
# How it was run: as §1
# [4] = biological target: Neu5Ac(a2-3)Gal(b1-4)GlcNAc6S
# How it was run: as §1
# [5] = biological target: Neu5Ac(a2-3)Gal(b1-4)[Fuc(a1-3)]GlcNAc
# How it was run: as §1
# [6] = biological target: Neu5Ac(a2-3)Gal(b1-4)[Fuc(a1-3)]GlcNAc(b1-2)Man
# How it was run: as §1
# [7] = biological target: Neu5Ac(a2-3)Gal(b1-4)[Fuc(a1-3)]GlcNAc(b1-3)Gal
# How it was run: as §1
# [8] = biological target: Neu5Ac(a2-3)Gal(b1-4)[Fuc(a1-3)]GlcNAc(b1-3)Gal(b1-4)GlcNAc
# How it was run: as §1
# [9] = biological target: Neu5Ac(a2-3)Gal(b1-4)[Fuc(a1-3)]GlcNAc(b1-3)Gal(b1-4)[Fuc(a1-3)]GlcNAc(b1-3)Gal(b1-4)[Fuc(a1-3)]GlcNAc
# How it was run: as §1
# [10] = biological target: Neu5Ac(a2-3)Gal(b1-4)[Fuc(a1-3)]GlcNAc(b1-3)GalNAc
# How it was run: as §1
# [11] = biological target: Neu5Ac(a2-3)Gal(b1-4)[Fuc(a1-3)]GlcNAc(b1-6)[Gal(b1-3)]GalNAc
# How it was run: as §1
# [12] = biological target: Neu5Ac(a2-3)Gal(b1-4)[Fuc(a1-3)]GlcNAc(b1-6)[Neu5Ac(a2-3)Gal(b1-3)]GalNAc
# How it was run: as §1
# [13] = biological target: Neu5Ac(a2-3)Gal(b1-4)[Fuc(a1-3)]GlcNAc6S
# How it was run: as §1
# [14] = biological target: Neu5Ac(a2-3)Gal6S(b1-4)GlcNAc
# How it was run: as §1
# [15] = biological target: Neu5Ac(a2-3)Gal6S(b1-4)[Fuc(a1-3)]GlcNAc
# How it was run: as §1
# Neu5Ac(a2-3)GalNAc = biological target: Neu5Ac(a2-3)GalNAc
# How it was run: as §1
# [16] = biological target: Neu5Ac(a2-3)GalNAc(b1-4)GlcNAc
# How it was run: as §1
# [17] = biological target: Neu5Ac(a2-3)[GalNAc(b1-4)]Gal(b1-4)Glc
# How it was run: as §1
# [18] = biological target: Neu5Ac(a2-3)[GalNAc(b1-4)]Gal(b1-4)GlcNAc
# How it was run: as §1
# [19] = biological target: Neu5Ac(a2-3)[GalNAc(b1-4)]Gal(b1-4)GlcNAc(b1-3)GalNAc
# How it was run: as §1
# [20] = biological target: Neu5Ac(a2-3)[Neu5Ac(a2-6)]GalNAc
# How it was run: as §1
# Neu5Ac(a2-6)Gal = biological target: Neu5Ac(a2-6)Gal
# How it was run: as §1
# [21] = biological target: Neu5Ac(a2-6)Gal(b1-3)GlcNAc(b1-3)[Gal(b1-4)GlcNAc(b1-6)]Gal(b1-4)Glc
# How it was run: as §1
# Neu5Ac(a2-6)Gal(b1-4)Glc = biological target: Neu5Ac(a2-6)Gal(b1-4)Glc
# How it was run: as §1
# [22] = biological target: Neu5Ac(a2-6)Gal(b1-4)GlcNAc
# How it was run: as §1
# [23] = biological target: Neu5Ac(a2-6)Gal(b1-4)GlcNAc(b1-2)Man
# How it was run: as §1
# [24] = biological target: Neu5Ac(a2-6)Gal(b1-4)GlcNAc(b1-2)Man(a1-3)Man(b1-4)GlcNAc(b1-4)GlcNAc
# How it was run: as §1
# [25] = biological target: Neu5Ac(a2-6)Gal(b1-4)GlcNAc(b1-2)Man(a1-3)[Gal(b1-4)GlcNAc(b1-2)Man(a1-6)]Man(b1-4)GlcNAc(b1-4)GlcNAc
# How it was run: as §1
# [26] = biological target: Neu5Ac(a2-6)Gal(b1-4)GlcNAc(b1-2)Man(a1-3)[GlcNAc(b1-4)][Neu5Ac(a2-6)Gal(b1-4)GlcNAc(b1-2)Man(a1-6)]Man(b1-4)GlcNAc(b1-4)GlcNAc
# How it was run: as §1
# [27] = biological target: Neu5Ac(a2-6)Gal(b1-4)GlcNAc(b1-2)Man(a1-3)[Man(a1-6)]Man(b1-4)GlcNAc(b1-4)GlcNAc
# How it was run: as §1
# [28] = biological target: Neu5Ac(a2-6)Gal(b1-4)GlcNAc(b1-2)Man(a1-3)[Neu5Ac(a2-3)Gal(b1-4)GlcNAc(b1-2)Man(a1-6)]Man(b1-4)GlcNAc(b1-4)GlcNAc
# How it was run: as §1
# [29] = biological target: Neu5Ac(a2-6)Gal(b1-4)GlcNAc(b1-2)Man(a1-3)[Neu5Ac(a2-6)Gal(b1-4)GlcNAc(b1-2)Man(a1-6)]Man(b1-4)GlcNAc(b1-4)GlcNAc
# How it was run: as §1
# [30] = biological target: Neu5Ac(a2-6)Gal(b1-4)GlcNAc(b1-2)Man(a1-3)[Neu5Ac(a2-6)Gal(b1-4)GlcNAc(b1-2)Man(a1-6)]Man(b1-4)GlcNAc(b1-4)[Fuc(a1-6)]GlcNAc
# How it was run: as §1
# [31] = biological target: Neu5Ac(a2-6)Gal(b1-4)GlcNAc(b1-2)Man(a1-6)Man(b1-4)GlcNAc(b1-4)GlcNAc
# How it was run: as §1
# [32] = biological target: Neu5Ac(a2-6)Gal(b1-4)GlcNAc(b1-2)Man(a1-6)[Gal(b1-4)GlcNAc(b1-2)Man(a1-3)]Man(b1-4)GlcNAc(b1-4)GlcNAc
# How it was run: as §1
# [33] = biological target: Neu5Ac(a2-6)Gal(b1-4)GlcNAc(b1-2)Man(a1-6)[GlcNAc(b1-2)Man(a1-3)]Man(b1-4)GlcNAc(b1-4)GlcNAc
# How it was run: as §1
# [34] = biological target: Neu5Ac(a2-6)Gal(b1-4)GlcNAc(b1-2)Man(a1-6)[Man(a1-3)]Man(b1-4)GlcNAc(b1-4)GlcNAc
# How it was run: as §1
# [35] = biological target: Neu5Ac(a2-6)Gal(b1-4)GlcNAc(b1-2)[Neu5Ac(a2-6)Gal(b1-4)GlcNAc(b1-4)]Man(a1-3)[GlcNAc(b1-4)][Neu5Ac(a2-6)Gal(b1-4)GlcNAc(b1-2)[Neu5Ac(a2-6)Gal(b1-4)GlcNAc(b1-6)]Man(a1-6)]Man(b1-4)GlcNAc(b1-4)GlcNAc
# How it was run: as §1
# [36] = biological target: Neu5Ac(a2-6)Gal(b1-4)GlcNAc(b1-2)[Neu5Ac(a2-6)Gal(b1-4)GlcNAc(b1-4)]Man(a1-3)[GlcNAc(b1-4)][Neu5Ac(a2-6)Gal(b1-4)GlcNAc(b1-4)Man(a1-6)]Man(b1-4)GlcNAc(b1-4)GlcNAc
# How it was run: as §1
# [37] = biological target: Neu5Ac(a2-6)Gal(b1-4)GlcNAc(b1-2)[Neu5Ac(a2-6)Gal(b1-4)GlcNAc(b1-6)]Man(a1-6)[Neu5Ac(a2-6)Gal(b1-4)GlcNAc(b1-2)Man(a1-3)][GlcNAc(b1-4)]Man(b1-4)GlcNAc(b1-4)GlcNAc
# How it was run: as §1
# [38] = biological target: Neu5Ac(a2-6)Gal(b1-4)GlcNAc(b1-3)Gal(b1-3)GlcNAc
# How it was run: as §1
# [39] = biological target: Neu5Ac(a2-6)Gal(b1-4)GlcNAc(b1-3)Gal(b1-4)GlcNAc
# How it was run: as §1
# [40] = biological target: Neu5Ac(a2-6)Gal(b1-4)GlcNAc(b1-3)Gal(b1-4)GlcNAc(b1-2)Man(a1-3)[Neu5Ac(a2-6)Gal(b1-4)GlcNAc(b1-3)Gal(b1-4)GlcNAc(b1-2)Man(a1-6)]GalNAc
# How it was run: as §1
# [41] = biological target: Neu5Ac(a2-6)Gal(b1-4)GlcNAc(b1-3)Gal(b1-4)GlcNAc(b1-3)Gal(b1-4)GlcNAc
# How it was run: as §1
# [42] = biological target: Neu5Ac(a2-6)Gal(b1-4)GlcNAc(b1-3)Gal(b1-4)GlcNAc(b1-3)Gal(b1-4)GlcNAc(b1-2)Man(a1-3)[Neu5Ac(a2-6)Gal(b1-4)GlcNAc(b1-3)Gal(b1-4)GlcNAc(b1-3)Gal(b1-4)GlcNAc(b1-2)Man(a1-6)]GalNAc
# How it was run: as §1
binder,measurement,setting,value
diCBM40 CPF071 (Clostridium perfringens) (protein) MAHHHHHHVGTGSNDDDDKSPDPMLSSLGEYKDINLESSNASNITYDLEKYKNLDEGTIVVRFNSKDSKIQSLLGISNSKTKNGYFNFYVTNSRVGFELRNQKNEGNTQNGTENLVHMYKDVALNDGDNTVALKIEKNKGYKLFLNGKMIKEVKDTNTKFLNNIENLDSAFIGKTNRYGQSNEYNFKGNIGFMNIYNEPLGDDYLLSKTGETKALNGSELGSGSGLSSLGEYKDINLESSNASNITYDLEKYKNLDEGTIVVRFNSKDSKIQSLLGISNSKTKNGYFNFYVTNSRVGFELRNQKNEGNTQNGTENLVHMYKDVALNDGDNTVALKIEKNKGYKLFLNGKMIKEVKDTNTKFLNNIENLDSAFIGKTNRYGQSNEYNFKGNIGFMNIYNEPLGDDYLLSKTGETK,glycan array binding signal (z-score),[1],-0.026
same,glycan array binding signal (z-score),[2],-0.268
same,glycan array binding signal (z-score),[3],0.191
same,glycan array binding signal (z-score),[4],7.8
same,glycan array binding signal (z-score),[5],1.7
same,glycan array binding signal (z-score),[6],0.06
same,glycan array binding signal (z-score),[7],3.06
same,glycan array binding signal (z-score),[8],2.04
same,glycan array binding signal (z-score),[9],0.119
same,glycan array binding signal (z-score),[10],-0.274
same,glycan array binding signal (z-score),[11],-0.235
same,glycan array binding signal (z-score),[12],-0.175
same,glycan array binding signal (z-score),[13],5.95
same,glycan array binding signal (z-score),[14],7.24
same,glycan array binding signal (z-score),[15],4.71
same,glycan array binding signal (z-score),Neu5Ac(a2-3)GalNAc,-0.325
same,glycan array binding signal (z-score),[16],-0.019
same,glycan array binding signal (z-score),[17],-0.239
same,glycan array binding signal (z-score),[18],-0.192
same,glycan array binding signal (z-score),[19],-0.223
same,glycan array binding signal (z-score),[20],-0.291
same,glycan array binding signal (z-score),Neu5Ac(a2-6)Gal,0.322
same,glycan array binding signal (z-score),[21],-0.319
same,glycan array binding signal (z-score),Neu5Ac(a2-6)Gal(b1-4)Glc,0.183
same,glycan array binding signal (z-score),[22],-0.146
same,glycan array binding signal (z-score),[23],-0.324
same,glycan array binding signal (z-score),[24],0.015
same,glycan array binding signal (z-score),[25],0.229
same,glycan array binding signal (z-score),[26],-0.31
same,glycan array binding signal (z-score),[27],-0.195
same,glycan array binding signal (z-score),[28],-0.278
same,glycan array binding signal (z-score),[29],0.49
same,glycan array binding signal (z-score),[30],0.213
same,glycan array binding signal (z-score),[31],0.02
same,glycan array binding signal (z-score),[32],-0.056
same,glycan array binding signal (z-score),[33],-0.225
same,glycan array binding signal (z-score),[34],-0.285
same,glycan array binding signal (z-score),[35],-0.127
same,glycan array binding signal (z-score),[36],-0.184
same,glycan array binding signal (z-score),[37],-0.3
same,glycan array binding signal (z-score),[38],-0.241
same,glycan array binding signal (z-score),[39],-0.102
same,glycan array binding signal (z-score),[40],-0.255
same,glycan array binding signal (z-score),[41],0.065
same,glycan array binding signal (z-score),[42],-0.118

# From the supplement of paper PMC8728848
